# Reference: PubChem BioAssay AID504832 (National Center for Advancing Translational Sciences (NCATS), 2011)
# The whole screen tested about 310,000 compounds, of which about 18,000 (5.8%) were called active. The shares of active, inactive and inconclusive entries below differ from those in the screen. The call rests on the fitted dose curve; in most records, active means well fitted inhibition curve with a large enough effect; inconclusive means small, poorly fitted or top-dose-only effect, or another doubt; inactive means no such curve, though single readings can be large or run the other way. No potency is given beside an inconclusive call; the fits are too rough.
# Assay: Primary qHTS for delayed death inhibitors of the malarial parasite plastid, 48 hour incubation
# Details: P. falciparum luciferase growth in erythrocytes; series mostly up to 28.7 µM
# Procedure, shortened: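 First compound was added to culture medium, then infected red cells at 0.1% parasitemia and 2% hematocrit (final). After incubation at 37 C under 5% CO2, luciferase detection reagent was dispensed and light output recorded.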
# Potency means the concentration at half of the fitted maximal effect; tags describe the fitted curve by direction and shape.
row,Compound,Potency
1,C/C(=N\NC(=O)c1ccccc1C)c1ccc(NC(=O)c2cccs2)cc1,inactive
2,CCc1nn(C(C)C(=O)NC2CCCCCC2)c(=O)c2cc3occc3n12 (stereo not given),inactive
3,O=C(/C=C/c1cccc([N+](=O)[O-])c1)NCCN1CCOCC1,inactive
4,COc1ccc(C2/C=C\CN(S(=O)(=O)/C=C/c3ccccc3)CC(=O)N2Cc2ccc(F)cc2)cc1 (stereo not given),"inconclusive [inhibitor, single point]"
5,CCCCCc1c(C)nc(N2CCc3ccccc32)[nH]c1=O,active: 9.28 µM
6,Cc1cccc(OCC(=O)Nc2ccc3c(c2)nc(CCN2CCC(C)CC2)n3C)c1,"inconclusive [inhibitor, partial curve, poor fit]"
7,Cc1cccc(C)c1NC(=O)CNC(=O)c1c(C)nn(-c2ccccc2)c1C,inactive
8,COc1ccccc1C1CC(c2ccccc2)Nc2ncnn21 (stereo not given),"inconclusive [inhibitor, partial curve]"
9,COC(=O)c1ccc(C2C(Oc3ccccc3)C(=O)N2CCc2ccc(F)cc2)cc1 (stereo not given),"inconclusive [inhibitor, single point]"
10,Cc1ccc(S(=O)(=O)c2cc3c(=O)n4ccccc4nc3n(Cc3ccco3)c2=N)cc1,"inconclusive [inhibitor, single point]"
11,O=C(CCCn1c(=O)c2sccc2n(Cc2ccc(F)cc2)c1=O)NCc1ccco1,"inconclusive [inhibitor, partial curve]"
12,CN(C)CCNC(=O)/C(=C/c1ccc(-c2cccc(Cl)c2)o1)NC(=O)c1ccccc1,active: 13.1 µM
13,O=c1cc(O)c2sc(Nc3cccc(C(F)(F)F)c3)nc2[nH]1,"inconclusive [inhibitor, single point]"
14,CCC(=O)NC(=S)NNC(=O)c1ccc(OC)cc1,"inconclusive [inhibitor, single point]"
15,CCc1nnc(NS(=O)(=O)c2ccc(NC(=O)c3cccc(OC)c3)cc2)s1,inactive
16,CCOC(=O)C1=C(CNC2CCCCC2)NC(=O)NC1c1cc(C)ccc1C (stereo not given),active: 10.4 µM
17,CCOc1ccc(NC(=S)Nc2ccc(OC(F)(F)F)cc2)cc1,inactive
18,CCCC(C(=O)OCCN(CC)CC)(c1ccccc1)c1ccccc1,active: 6.01 µM
19,O=C(/C=C/c1cccc(Br)c1)c1ccc2c(c1)OCO2,inactive
20,COc1ccc(-c2nnn(CC(=O)N(CCN3CCOCC3)C(C(=O)NC3CCCC3)c3ccco3)n2)cc1 (stereo not given),"inconclusive [inhibitor, full curve, poor fit]"
21,O=C(Cn1c(=O)oc2cc(S(=O)(=O)N3CCCC3)ccc21)NC1CCCc2ccccc21 (stereo not given),"inconclusive [inhibitor, single point]"
22,Clc1ccc(C2=Nn3c(Cn4nnc5ccccc54)nnc3SC2)cc1,"inconclusive [inhibitor, single point]"
23,CCn1cc(CN2CCCC(C(=O)Nc3ccc(-c4nc5ccccc5[nH]4)cc3)C2)c(C)n1 (stereo not given),active: 2.08 µM
24,O=C(Nc1cc(Sc2nc3ccccc3s2)cc([N+](=O)[O-])c1)c1ccccc1F,"inconclusive [inhibitor, single point]"

row,Compound,Potency
1,CN(C)/C=C/C(=O)/C=C/c1ccc(Cl)cc1,inactive
2,O=C(COc1ccc(Cl)cc1Cl)N/N=C1\CCCc2ccccc21,inactive
3,CC(=O)N1c2ccc(S(=O)(=O)N3CCC(C(=O)N4CCN(c5cc(Cl)ccc5C)CC4)CC3)cc2CC1C (stereo not given),"inconclusive [inhibitor, partial curve]"
4,COc1ccc(CNC(=O)CCn2ccc3cc(S(=O)(=O)N4CCCC4)ccc32)cc1,"inconclusive [inhibitor, partial curve, poor fit]"
5,CC1CCCN(CC(O)COCc2ccccc2)C1 (stereo not given),inactive
6,c1ccc2c(CN3CCCCCCC3)c[nH]c2c1,"inconclusive [inhibitor, partial curve, poor fit]"
7,O=C(CN1C(=O)/C(=C/c2c(F)cccc2Cl)Oc2ccccc21)NCc1ccco1,"inconclusive [inhibitor, single point]"
8,O=C(CN1CCN(S(=O)(=O)c2ccc(Br)cc2)CC1)Nc1ccc(F)cc1,active: 4.15 µM
9,COc1cc(NC(=O)[C@@H]2CCCN(S(=O)(=O)c3cccc4cccnc34)C2)cc(OC)c1OC,"inconclusive [inhibitor, partial curve, poor fit]"
10,CC(=O)c1ccc(OC(=O)c2cc3ccccc3oc2=O)cc1,inactive
11,CCOC(=O)c1c(NC(=O)CSc2nnc(-c3c[nH]c4ccccc34)n2CCOC)sc2c1CCCCC2,"inconclusive [inhibitor, partial curve, poor fit]"
12,CC12CCC(C(=O)N(CSC(=S)N/N=C\c3ccccc3Cl)C1=O)C2(C)C (stereo not given),"inconclusive [inhibitor, single point]"
13,COc1ccc(S(=O)(=O)N2CCOCC2)cc1N(C)S(=O)(=O)c1ccc(C)cc1,inactive
14,CCOP(=O)(OCC)c1nc(-c2ccc(C)cc2)oc1NCc1ccccc1,"inconclusive [inhibitor, single point]"
15,CC1CCC(NC(=O)c2cc3ccccc3cc2O)CC1 (stereo not given),"inconclusive [inhibitor, single point]"
16,CC(C)(C)n1nnnc1C(c1cccnc1)N1CCN(c2ccccc2)CC1 (stereo not given),"inconclusive [inhibitor, partial curve]"
17,CN(C)c1ccc(/C=N/n2c(C3CCCCC3)n[nH]c2=S)cc1,"inconclusive [inhibitor, partial curve]"
18,CCOc1ccc(S(=O)(=O)N2CCCCC2)c(C)c1C,"inconclusive [inhibitor, partial curve]"
19,CN1CCN(CC(O)Cn2c3ccccc3c3ccccc32)CC1 (stereo not given),"inconclusive [inhibitor, single point]"
20,Clc1ccc2oc(-c3cccnc3)nc2c1,inactive
21,COc1cccc(NC(=O)CN(C)CC(=O)NCc2ccc3c(c2)OCO3)c1,inactive
22,Cc1cc(C)n(C2CC(=O)N(c3ccc(C)c(Cl)c3)C2=O)n1 (stereo not given),"inconclusive [inhibitor, single point]"
23,COc1ccccc1C(=O)NNC(=O)c1ccc(NC(=O)CC(C)C)cc1,"inconclusive [inhibitor, full curve, poor fit]"
24,N#Cc1ccc(NC(=O)Cn2cnc(S(=O)(=O)N3CCCC3)c2)cc1,inactive

row,Compound,Potency
1,NS(=O)(=O)c1ccc(N/N=C/c2ccncc2)cc1,active: 6.57 µM
2,NC(=O)c1ccccc1OCC(=O)Nc1ccc(Cl)c(Cl)c1,inactive
3,O=C(CN(c1ccc(F)cc1)S(=O)(=O)c1ccc2c(c1)OCCO2)Nc1ccc2c(c1)OCO2,"inconclusive [inhibitor, partial curve]"
4,CC(=O)C1=C(O)C(=O)N(c2ccc(O)cc2)C1c1ccccc1Cl (stereo not given),inactive
5,CCOC(=O)c1c(NC(=O)CSc2nccc(=O)[nH]2)sc(C)c1C,inactive
6,O=C(NCc1ccc(F)cc1)c1cnccn1,inactive
7,COc1cccc(-c2ccc(NC(=O)C3CCCN(Cc4nccn4C)C3)cc2)c1 (stereo not given),"inconclusive [inhibitor, single point]"
8,Clc1ccc(C2Nc3ccccc3-n3cccc32)cc1 (stereo not given),inactive
9,CN(C)c1nc(Oc2ccc(C(=O)OCC(=O)Nc3ccccc3)cc2)nc(N(C)C)n1,"inconclusive [inhibitor, partial curve, poor fit]"
10,CNc1cnn(-c2ccccc2)c(=O)c1Cl,inactive
11,COc1ccccc1NS(=O)(=O)c1cc([N+](=O)[O-])ccc1N/N=C/c1c(C)[nH]c2ccccc12,active: 10.4 µM
12,O=C(COC(=O)c1ccc(O)cc1)Nc1cccc(S(=O)(=O)NC2=NCCC2)c1,"inconclusive [inhibitor, partial curve, poor fit]"
13,COc1ccc(CCN(C)C(=O)COc2ccc(C(=O)c3ccccc3)cc2)cc1OC,"inconclusive [inhibitor, partial curve]"
14,O=[N+]([O-])c1[nH]cnc1/C=C/c1ccccc1,"inconclusive [inhibitor, partial curve, poor fit]"
15,CC(OC(=O)c1ccc(S(=O)(=O)N2CCCCC2)cc1)C(=O)NC1CCCCC1C (stereo not given),inactive
16,CCOC(=O)C1CCN(C(=O)Cn2cnc3sc(C)c(S(=O)(=O)N4CCCCC4)c3c2=O)CC1,"inconclusive [inhibitor, single point]"
17,COc1ccc2nc3sc(C(=O)NCCCN4CCc5ccccc5C4)cc3cc2c1,"inconclusive [inhibitor, single point]"
18,CCNC(=O)C(C)Sc1ccc(Cl)cc1 (stereo not given),"inconclusive [inhibitor, partial curve]"
19,c1ccc(CCn2nnnc2CN2CCC(n3nnc4ccccc43)CC2)cc1,"inconclusive [inhibitor, single point]"
20,Cc1ccc(-c2nc(-c3cccnc3)no2)c(C)c1,"inconclusive [inhibitor, single point]"
21,C=C(C)C(=O)Nc1cccc(C2=NOC3(C2)C[C@H](C(N)=O)N(C(=O)COc2ccc(Cl)cc2)C3)c1 (stereo not given in full),"inconclusive [inhibitor, single point]"
22,CC1CCCCN1C(=O)CSc1nc(C2CC2)nc2ccccc12 (stereo not given),"inconclusive [inhibitor, single point]"
